Out of some 310,000 compounds screened, about 2,200 (0.71%) showed an effect of 50% or more. Effects have a minus sign here. The list shows a part of the results.
target: human ether-à-go-go-related gene (hERG) potassium channel (human, UniProt Q12809); test: primary screen, population patch clamp on CHO cells stably expressing hERG
Sequence (Q12809 whole entry, looked up): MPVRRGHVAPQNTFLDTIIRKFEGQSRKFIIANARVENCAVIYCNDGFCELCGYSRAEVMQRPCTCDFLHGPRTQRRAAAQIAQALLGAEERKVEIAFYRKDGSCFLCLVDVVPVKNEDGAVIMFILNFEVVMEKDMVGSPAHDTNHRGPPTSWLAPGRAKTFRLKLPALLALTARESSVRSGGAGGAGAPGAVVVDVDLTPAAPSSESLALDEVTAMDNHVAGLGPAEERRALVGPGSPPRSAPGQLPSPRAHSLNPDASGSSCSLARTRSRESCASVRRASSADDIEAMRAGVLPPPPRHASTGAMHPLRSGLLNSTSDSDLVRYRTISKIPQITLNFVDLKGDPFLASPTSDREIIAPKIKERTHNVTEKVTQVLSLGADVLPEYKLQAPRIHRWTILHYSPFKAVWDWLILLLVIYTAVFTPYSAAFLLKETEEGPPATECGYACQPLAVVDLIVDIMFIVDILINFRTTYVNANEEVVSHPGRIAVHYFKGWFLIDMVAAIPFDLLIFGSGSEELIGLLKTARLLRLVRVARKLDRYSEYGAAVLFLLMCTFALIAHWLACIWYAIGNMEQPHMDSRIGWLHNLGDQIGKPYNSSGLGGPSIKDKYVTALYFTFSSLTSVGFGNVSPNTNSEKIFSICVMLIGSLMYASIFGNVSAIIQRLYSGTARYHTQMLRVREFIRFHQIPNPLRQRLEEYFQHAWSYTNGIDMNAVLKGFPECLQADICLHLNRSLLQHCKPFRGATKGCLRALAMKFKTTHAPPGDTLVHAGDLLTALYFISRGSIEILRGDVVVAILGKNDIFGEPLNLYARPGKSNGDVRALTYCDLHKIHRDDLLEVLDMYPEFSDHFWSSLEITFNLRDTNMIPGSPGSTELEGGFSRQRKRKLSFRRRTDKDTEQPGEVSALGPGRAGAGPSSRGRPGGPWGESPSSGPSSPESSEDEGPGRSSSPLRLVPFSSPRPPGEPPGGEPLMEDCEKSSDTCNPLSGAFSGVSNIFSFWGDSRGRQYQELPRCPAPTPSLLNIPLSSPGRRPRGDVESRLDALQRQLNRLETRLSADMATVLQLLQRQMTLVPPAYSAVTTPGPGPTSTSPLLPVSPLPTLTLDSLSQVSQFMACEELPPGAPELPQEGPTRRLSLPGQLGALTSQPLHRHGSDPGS

SMILES	hERG current change (%, negative = inhibition) at 1uM [%]
COc1ccc(CNC(=O)COC(=O)c2ccccn2)cc1	4.36
Cc1nc2ccccc2c(=O)n1-c1ccncc1	12.8
CCOC(=O)C1=C(C)N(CCCC(=O)NCc2ccc3c(c2)OCO3)C(=O)NC1c1ccc(Br)cc1 (centres unmarked)	12.5
COc1ccc(/C(C)=N/NC(=O)c2nnn(-c3nonc3N)c2-c2ccccc2)cc1	14.1
COC(=O)c1ccc(S(=O)(=O)NCc2ccccn2)n1C	14.5
CCCC(C(=O)NC(C)(C)C)N(CC1CCCO1)C(=O)CNS(=O)(=O)c1ccc(F)cc1 (centres unmarked)	15.7
COC(=O)c1cccc(S(=O)(=O)N2CCC(c3nc4ccccc4o3)CC2)c1	7.19
Cc1cccc(N2CCN(C(=O)Cn3cccc3)CC2)c1C	12.5
Cn1cccc1Cc1nnc(SCC(=O)Nc2nccs2)n1C	11.2
CC(C)(C)c1ccc(S(=O)(=O)Nc2ccccn2)cc1	6.68
O=C(CNC(=O)c1ccncc1)N/N=C/c1ccc(Br)cc1	5.38
COc1c(S(=O)(=O)N2CCN(c3ccc(F)cc3)CC2)ccc(Cl)c1Cl	11.5
Cc1nn(C(C)(C)C)c(C)c1/C=N/OC(=O)Nc1ccc(Cl)cc1	6.19
CC(C)Cc1nc(SCC(=O)N2CCCCC2)c2c(=O)n(C)c(=O)n(C)c2n1	3.87
O=C(c1ccc2nccnc2c1)N1CCN(c2cccc(C(F)(F)F)c2)CC1	0.436
O=C(NCc1ccco1)C(=O)NCC1OCCCN1S(=O)(=O)c1ccc(F)cc1 (centres unmarked)	10
O=C1NC(=O)C2(COC(c3ccccc3Cl)OC2)S1 (centres unmarked)	13.6
CCOC(=O)C1=C(CN2CCN(C(=O)c3ccco3)CC2)NC(=O)NC1c1ccc(OC)cc1 (centres unmarked)	-38
CCCCC(=O)Nc1ccnc(-c2cccnc2)n1	6.64
Cc1nn(C)cc1CNC(=O)CCC(=O)O	9.41
COc1ccc(C(=O)NNC(=O)c2snnc2C)cc1	14.7
Cl.c1cnc(N2CCNCC2)nc1	11.3
Cc1cc(C(=O)Nc2nc(C)c(C(=O)N(C)C)s2)ccc1[N+](=O)[O-]	7.78

SMILES	hERG current change (%, negative = inhibition) at 1uM [%]
COC(=O)c1cccc(NC(=O)CC2C(=O)NCCN2C(=O)Nc2ccccc2)c1 (centres unmarked)	13.3
Cc1ccc(-c2csc3ncnc(NCCC(=O)O)c23)cc1C.Cl	11.7
O=C(Nc1ccccc1NC(=O)c1ccccc1Cl)c1ccccc1Cl	14.5
CCn1ncc(CNC(=O)C2(C)CC2(Cl)Cl)c1C (centres unmarked)	7.37
COc1ccc(Cl)cc1Nc1cc(C)nc2nc(C)nn12	-2.49
Cc1ccc(SCC(=O)Nc2c(Br)cnn2C)cc1	11.4
COc1cccc(/C=N/NC(=S)Nc2cccc(C(=O)O)c2)c1O	16.8
COc1cccc(C(=O)Nc2ccc3nc(N4CCOCC4)cc(C)c3c2)c1	-12.3
COc1cc(OC)cc(C(=O)NNC(=O)CN2C(=O)NC3(CCCC3)C2=O)c1	5.37
O=C(CCCN1C(=O)/C(=C\c2ccccc2)SC1=S)Nc1ccc(C(=O)O)cc1	14.1
COc1ccc2cc(CN(CC3CCCO3)C(=S)Nc3ccccc3)c(=O)[nH]c2c1 (centres unmarked)	6.42
Cn1c(=O)c2nc(-c3ccccc3)oc2c2ccccc21	11.2
Cc1ccc(C(=O)NCCCn2ccnc2)cn1	-0.918
Cc1cc(C)cc(NC(=S)N(CCN2CCCCC2)Cc2ccco2)c1	-21.8
C[C@@H]([C@@H](O)c1ccccc1)N(C)C(=O)C(N)Cc1ccccc1 (some centres unmarked)	7.52
CCN1CCN(C(=O)COCc2cc(-c3ccc4c(c3)OCO4)on2)CC1	-0.269
Cn1ncc(Cl)c1C(=O)Nc1cc(C(F)(F)F)ccc1F	24.3
Cc1nn(-c2ccccc2)c(Cl)c1C(=O)N1CCN(C)CC1	2.04
Cc1nc2c(sc(=S)n2Cc2ccco2)c(=O)n1CC(=O)Nc1ccc(F)cc1	5.48
COc1ccccc1CCC(=O)Nc1ccc(OC)c(S(=O)(=O)N2CCCCC2)c1	-7.66
Cc1ccc(N2C(=O)NC(=O)/C(=C/c3cnc(-c4ccccc4)nc3)C2=O)cc1C	7.11
O=C(CCN1C(=O)c2ccccc2C1=O)Nc1ccc(-c2nc3ccccc3o2)cc1	11.8
O=C(COc1ccc(Cl)cc1)N1CCN(C(=O)c2ccccc2F)CC1	-2.94

SMILES	hERG current change (%, negative = inhibition) at 1uM [%]
Cn1nc(C(F)(F)F)c2cc(NC(=O)OCc3ccc(F)cc3)sc21	8.2
COc1ccccc1CNC(=O)[C@H](C)NC(=O)C1CCN(C(=O)[C@@H](N)C(C)C)CC1	11.2
COc1ccc(/C=N/NC(=O)c2c(C)n(C)c3ccc(OC)cc23)c(OC)c1	7.02
O=C(Nc1ccon1)c1ccc2c(c1)OCO2	4.41
COc1cc(CN2CCCCCC2)cc(OC)c1O	10.8
Cc1ccccc1S(=O)(=O)c1c(C)cc(C)n(C)c1=O	4.08
O=C(NC(C(=O)c1ccccc1)N1CCOCC1)c1cccs1 (centres unmarked)	-6.41
COC(=O)c1cn(NC(=O)c2ccc(OC)c([N+](=O)[O-])c2)c(=O)c2ccccc12	13.1
N#Cc1ccccc1S(=O)(=O)N1CCN(C(=O)CN2CCCSc3ccccc32)CC1	-4.14
Cc1nc([N+](=O)[O-])c(NCCO)n1Cc1ccccc1	6.47
COc1nc(-c2ccc(Cl)cc2Cl)nc2ccccc12	9.76
COc1ccc(CN2CCN(Cc3ccco3)CC2)c(OC)c1.O=C(O)C(=O)O	-17.9
CCN1C(=O)c2ccccc2S(=O)(=O)c2ccc(C(=O)N3CCOCC3)cc21	1.8
CC(C)C[C@H]1CN=C(Nc2ccccc2)N1CCC1CCCCC1	-1.21
CSc1ccccc1C(=O)Nc1cc2c(cc1C(=O)O)OCCCO2	15.1
O=C(COC(=O)CCC1CCCC1)Nc1ccc(F)cc1	15.7
NS(=O)(=O)c1ccc(CCNC(=O)c2ccc3nc4ccc(Cl)cc4c(=O)n3c2)cc1	13
CN(C)S(=O)(=O)c1ccc(C(=O)NCCSc2ccc(Br)cc2)cc1	-11
C/C(=N\NC(=O)c1cc(C)nc2ccccc12)c1ccccn1	5.58
Cc1n[nH]c(=O)c2c(NC(=O)CSc3nc4ccccc4c(=O)n3C(C)C)oc(C)c12	14.6
CC(Oc1cc2oc(=O)c3c(c2cc1Cl)CCCC3)C(=O)NCCN1CCOCC1 (centres unmarked)	5.55
CCN1CCN(CC(=O)N2N=C(c3cccs3)CC2c2ccc(OC)c(OC)c2)C(=O)C1=O (centres unmarked)	15.5
Cc1c(C(=O)Nc2ccc(OCc3ccccc3)cc2)cccc1[N+](=O)[O-]	5.88

SMILES	hERG current change (%, negative = inhibition) at 1uM [%]
COC(=O)C1=C(Nc2ccc(OC)cc2)C=C(C)C(C(=O)OC)C1c1ccc(C)cc1 (centres unmarked)	16.5
CC(C)(C)NC(=O)C(=O)N/N=C/c1cccs1	-5.31
COC(=O)c1ccc2c(=O)[nH]c(COC(=O)c3c(-c4ccccc4Cl)noc3C)nc2c1	8.66
Cc1noc(C)c1S(=O)(=O)Nc1c(C)n(C)n(-c2ccccc2)c1=O	14.4
Cc1oc(C(C)(C)C)cc1C(=O)Nc1ccc(N2CCOCC2)cc1	4.63
CCC1CCCCN1C(=O)CSc1nnc(-c2ccc(OC)cc2)o1 (centres unmarked)	1.6
CCC(C)NCCOCCOc1ccc(Cl)c(C)c1C.O=C(O)C(=O)O (centres unmarked)	13
CCOC(=O)c1c(C)nc(C)c(C(=O)OCC)c1-c1ccccc1	0.12
Cc1ccc(S(C)(=O)=O)cc1S(=O)(=O)Nc1ccccc1	2.79
CCC(C)NC(=S)NNC(=O)c1ccc(C(C)(C)C)cc1 (centres unmarked)	20.2
CCOc1ccc(C(=O)NC2CCN(CC(=O)NCc3ccccc3)CC2)cc1	-8.06
CCCS(=O)(=O)n1nc(-c2ccccc2)cc1N	15.4
O=C(CCN1CCN(c2ccccc2)CC1)Nc1cccc(Br)c1	-12.8
Fc1cnc(Cl)nc1N1CCN(c2ccccc2)CC1	11
COc1ccc(-n2c3c(cc(C(=O)N4CCC(C)CC4)c2=O)C(=O)CC(C)(C)C3)cc1	1.9
Cc1cc(=O)oc2cc(NC(=O)CCC(=O)O)ccc12	3.82
O=C(NC1CCCC1)C(c1ccncc1)N(Cc1ccccc1)C(=O)c1ccc(-c2ccccc2)[nH]1 (centres unmarked)	5.93
COc1ccccc1-c1noc(CCC(=O)Nc2cccc(C)c2)n1	7.82
O=C(COC(=O)Cn1cnc2ccccc2c1=O)NCCC1=CCCCC1	6.61
COc1cccc(-c2nn(C)c3sc(C(=O)N4CCN(c5ccccn5)CC4)cc23)c1	6.12
